“And” between values parts separate entries of the source, which are not always exact repeats. Equal entries are not always repeated. Out of some 100,000 compounds screened, about 250 (0.25%) were called active. The inconclusive results got no clear call from the source; some entries with a clear call stand among them for comparison. Calls follow the shape of the dose curve; as a rule, active = well fitted inhibition curve with a large enough effect; inconclusive = small, poorly fitted or top-dose-only effect; inactive = flat fitted curve, though single readings scatter. No potency is given beside an inconclusive call; the fits are too rough. The source holds several records for some structures; these can differ, active in one and inactive in another.
The compounds below were run against Alanine aminotransferase 2 (Homo sapiens) (UniProt Q8TD30) (assay: Primary qHTS assay for inhibitors of Glutamate pyruvate transaminase 2 (GPT2)). Details: Recombinant GPT2, coupled pyruvate oxidase/HRP Amplex Red fluorescence; series mostly up to 57.7 µM.
Chain of UniProt Q8TD30 (Q8TD30 whole entry, looked up): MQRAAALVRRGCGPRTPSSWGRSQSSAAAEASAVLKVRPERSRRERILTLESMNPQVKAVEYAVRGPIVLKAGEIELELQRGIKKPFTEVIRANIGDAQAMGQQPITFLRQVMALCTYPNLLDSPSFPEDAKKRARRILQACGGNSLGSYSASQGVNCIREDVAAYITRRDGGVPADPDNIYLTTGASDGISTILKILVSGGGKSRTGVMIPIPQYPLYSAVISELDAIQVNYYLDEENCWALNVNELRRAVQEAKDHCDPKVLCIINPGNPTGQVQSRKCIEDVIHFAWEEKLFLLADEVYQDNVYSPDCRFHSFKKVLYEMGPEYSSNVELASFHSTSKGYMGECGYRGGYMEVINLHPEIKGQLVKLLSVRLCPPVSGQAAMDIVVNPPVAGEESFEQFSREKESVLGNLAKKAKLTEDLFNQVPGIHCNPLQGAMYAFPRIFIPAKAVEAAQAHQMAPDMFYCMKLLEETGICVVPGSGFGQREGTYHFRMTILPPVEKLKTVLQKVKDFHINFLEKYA
Summary of the method: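 Recombinant GPT2 (10ng/uL) with 250uM a-KG and 2mM L-alanine, 30 min at room temperature, in HEPES pH 7.5 buffer. Pyruvate detected by pyruvate oxidase/HRP/Amplex Red fluorescence after 30 min in the dark; AOA (50uM) as positive control.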
Also: nearly all actives have a fitted effect of over 60% in size.
Potency is read from the fitted curve at half-maximal effect; tags tell the direction and shape of the fitted curve.

Compound	Potency
Cc1ccc(S(=O)(=O)N2CCC(CCC(=O)NCCCc3ccccc3)CC2)cc1	inconclusive [inhibitor, single point]
O=C1CCN(C2CCN(Cc3nc(COc4ccccc4)no3)CC2)CCN1	inconclusive [inhibitor, single point]
Cn1cccc1CN1CCC(N2CCOCC2=O)CC1	inconclusive [inhibitor, full curve, poor fit]
COc1cc(OC)cc(C(=O)NCC2CCCN(Cc3cccc(C)n3)C2)c1 (stereo not given)	inconclusive [inhibitor, single point]
O=C1CN(Cc2ccc(-c3cc(F)cc(F)c3)cc2)CCN1c1cc(Cl)ncn1	inconclusive [inhibitor, single point]
CN1CCN(C(=O)[C@@H]2CCC[C@@H](NCc3cccc4c3OCO4)CN(C)C(=O)C2)CC1	inactive
Cn1cc(-c2cn(C)c(=O)n3cc(COc4ccc(Cl)cc4)nc23)cn1	inconclusive [inhibitor, full curve, poor fit]
CN(C)CC1(COc2cccnc2)C[C@@H](O)[C@@H](O)C1 (stereo not given in full)	inactive
Cc1ccccc1N1CCN(C(=O)c2cc3c(s2)CCN(C(=O)c2ccccc2)C3)CC1	inactive
CCN1CCN(c2ccc(Nc3cc(N(C)C(=O)Nc4c(Cl)c(OC)cc(OC)c4Cl)ncn3)cc2)CC1	active: 544 nM and active: 8.91 µM
COCCNCc1ccc(-c2cccc(Cl)c2)o1	inactive
O=C(COc1ccc(F)cc1)N1CCCCC1c1nc(CCOCC2CCCC2)no1 (stereo not given)	inconclusive [inhibitor, single point]
Oc1cc(O)cc(/C=C/c2ccc(O)c(O)c2)c1	active: 6.31 µM
COc1ccc(NC(=O)NCC2CCC(=O)N(Cc3ccccc3)CC2)cc1F (stereo not given)	inactive
O=C(CCCc1cn[nH]c1)N1CCCC(CCc2c(F)cccc2F)C1 (stereo not given)	inactive
Cc1cnc(C2CCOCC2)n1C1CCN(C(=O)NCCc2ccccc2)CC1	inconclusive [inhibitor, partial curve, poor fit]
CCc1nc2cc(N3CCCC(C(=O)NC(C)C)C3)cnc2nc1CC (stereo not given)	inconclusive [inhibitor, single point]
CCOc1ccccc1NC(=O)N1CCC[C@H]1C(=O)N1CCCCCCNC(=O)CC1	inconclusive [inhibitor, single point]
CC(C)(C)c1ccc(CCCc2nc(C3CCOC3)no2)cc1 (stereo not given)	inconclusive [inhibitor, single point]
COc1cccc(COC2CN(C(=O)CC3CCCC3)CC(=O)N(Cc3ccccn3)C2)c1 (stereo not given)	inactive
COc1ccccc1CN1CC(c2noc(-c3cc(C)cc(C)c3)n2)CC1=O (stereo not given)	inactive
Cc1cc(Nc2cc(N3CCN(C)CC3)nc(Sc3ccc(NC(=O)C4CC4)cc3)n2)n[nH]1	active: 27.3 µM
Cc1ccc(S(=O)(=O)N[C@H]2C[C@@H](c3nc(-c4ccc5c(c4)OCO5)no3)N(C)C2)cc1	inconclusive [inhibitor, single point]

Compound	Potency
CN1CCN(N)CC1	inactive
Cc1cc(NC(=O)N2CCCC(Cn3c(C)nc4cccnc43)C2)ccc1Br (stereo not given)	inactive
CN1CC(=O)N(C2CCC2)Cc2c1ncnc2N1CCCC1	inconclusive [inhibitor, single point]
COc1ccccc1Nc1ccnc(N2CCCC(C(=O)NC3CCOC3)C2)n1 (stereo not given)	inactive
O=C1CCN(C(=O)C2CCCC2)CCCC(c2nc(-c3ccccc3)no2)CCN1 (stereo not given)	inactive
O=C(CCC1CCCC1)N1CC(CO)C2(CCNCC2)C1 (stereo not given)	inactive
CCn1cnnc1-c1nn(C)c2c1CN(C(=O)CCC1CCCC1)CC2	inactive
COc1ccc(-c2ccc3c(N4CCOCC4C)nc(N4CCOCC4C)nc3n2)cc1CO (stereo not given)	inactive
COc1ccc(NC(=O)c2ccc3oc(-c4ccncc4)nc3c2)cc1	inconclusive [inhibitor, single point]
COc1cc(-c2nc3c([nH]2)CC(c2ccccc2OC)CNC3=O)ccc1O (stereo not given)	inconclusive [inhibitor, single point]
CC1=C(CO)C(=O)O[C@@H]([C@@H](C)[C@H]2CC[C@H]3[C@@H]4C[C@H]5O[C@]56[C@@H](O)C=CC(=O)[C@]6(C)[C@@H]4CC[C@]23C)C1	inactive
CC(C)N1Cc2cc(C(=O)NC3CCN(Cc4ccccc4)CC3)sc2C1	inconclusive [inhibitor, partial curve]
Cc1ccc(C(=O)N2C[C@H]3CN(C4CCOCC4)C[C@@]3(C(=O)O)C2)cc1	inconclusive [inhibitor, single point]
COc1cc(C)c2c(c1C)C[C@H]([C@H](C)C(=O)O)CC2	inconclusive [inhibitor, full curve, poor fit]
CCC1CN(Cc2cn(-c3ccccc3C)nc2-c2ccc(OC)c(F)c2)CCO1 (stereo not given)	inconclusive [inhibitor, full curve, poor fit]
COc1ccc(-c2noc([C@@H]3Cc4nc[nH]c4CN3C(=O)Nc3ccc(Cl)cc3)n2)cc1	inactive
Cc1cc2nc3n(c(=O)c2n1CC(=O)NC1CCc2ccccc21)CCCCC3 (stereo not given)	inactive
O[C@@](Cc1ncc(CC2(C(F)(F)F)CC2)[nH]1)(c1ccc(-n2cccn2)cc1)C(F)(F)F	inconclusive [inhibitor, partial curve, poor fit]
CCC(C)c1ccc(NC(=O)Cn2cnc3c2c(=O)n(C)c(=O)n3C)cc1 (stereo not given)	inconclusive [inhibitor, single point]
Cc1ccc(S(=O)(=O)N2CC(C(=O)NC3CCCCC3)C3(CCOCC3)C2)cc1 (stereo not given)	inactive
O=C(CCC[C@@H]1[C@H]2CCCN3CCC[C@@H](CN1C(=O)Nc1ccccc1F)[C@@H]23)Nc1ccccc1	inconclusive [inhibitor, single point]
O=C(NC1CCCCC1)C1(CCO)CC12CCN(c1ncccn1)CC2 (stereo not given)	inconclusive [inhibitor, partial curve]
